Our source for the cytotoxicity call and growth inhibition call values is the antibiotic and cytotoxicity screens of Wong et al. (2023).

Some of the results follow.

In one experiment the test system is HSkMC. Nature of the experiment: cytotoxicity call (relative viability < 0.9). Particulars: 10 µM.
The subject of the next experiment is HepG2. Description: cytotoxicity call (relative viability < 0.9). The following applies: 10 µM.
Another experiment relates to S. aureus RN4220. Nature of the experiment: growth inhibition call (relative growth <= 0.2). Particulars: 50 µM.

With `COc1c(-c2coc3cc4c(cc3c2=O)CC(O)C(C)(C)O4)ccc2c1C=CC(C)(C)O2` (stereo unspecified), the cytotoxicity call with HSkMC and in the experiment with HepG2 was “active” throughout. Moreover, the growth inhibition call with S. aureus RN4220 is “inactive”.
Turning to `CC[C@@H](N)c1ccc(C)c(C)c1`, the cytotoxicity call in the experiment with HSkMC and in the experiment with HepG2 was “inactive” each time. Moreover, the growth inhibition call in the experiment on S. aureus RN4220 is “inactive”.
As to `C[C@H]1CN([C@@H](C)CO)C(=O)c2cccc(NC(=O)c3ccc(-c4nccs4)cc3)c2O[C@@H]1CN(C)S(=O)(=O)c1ccc(Cl)cc1`, the cytotoxicity call in the experiment with HSkMC and with HepG2 was “inactive” in each case. Further, the growth inhibition call in the experiment with S. aureus RN4220 was “inactive”.
Regarding `Cl.O=c1n(CCCN2CCN(c3cccc(Cl)c3)CC2)nc2ccccn12`, the cytotoxicity call in the experiment on HSkMC and in the experiment on HepG2 was “inactive” throughout. Further, in the experiment with S. aureus RN4220, the growth inhibition call was “inactive”.
Turning to `C[C@H](CO)N1C[C@H](C)[C@@H](CN(C)S(=O)(=O)c2cn(C)cn2)Oc2ccc(NS(=O)(=O)c3ccc(Cl)cc3)cc2CC1=O`, the cytotoxicity call in the experiment with HSkMC and with HepG2 was “inactive” in each case. Besides, the growth inhibition call in the experiment on S. aureus RN4220 is “inactive”.
For the compound `COC(=O)CCCCCCC(=O)N/N=C/[C@H](O)[C@@H](O)[C@@H](O)[C@H](O)C(=O)O`, the cytotoxicity call in the experiment with HSkMC and with HepG2 was “inactive” throughout. In addition, in the experiment with S. aureus RN4220, the growth inhibition call was “inactive”.
`Cc1c(C)n2c3c(=O)[nH]c(=O)n(C)c3nc2n1C`: the cytotoxicity call in the experiment with HSkMC and in the experiment with HepG2 was “inactive” in each case. For the same compound, in the experiment with S. aureus RN4220, the growth inhibition call is “inactive”.
As for `C[C@@H]1CN([C@@H](C)CO)C(=O)c2cc(Br)cnc2O[C@@H]1CN(C)Cc1ccc(C(=O)O)cc1`, the cytotoxicity call in the experiment with HSkMC and with HepG2 was “inactive” throughout. For the same compound, the growth inhibition call in the experiment on S. aureus RN4220 is “inactive”.
Consider `C[C@@H]1CCCCO[C@H](CN(C)C(=O)Cc2ccccc2)[C@@H](C)CN([C@@H](C)CO)C(=O)c2cc(NS(=O)(=O)c3cccs3)ccc2O1`, for which the cytotoxicity call in the experiment on HSkMC and in the experiment with HepG2 was “inactive” each time. For the same compound, the growth inhibition call in the experiment on S. aureus RN4220 was “inactive”.
In the case of `C[C@H](CO)N1C[C@H](C)[C@H](CN(C)S(=O)(=O)c2cn(C)cn2)Oc2ccc(NS(=O)(=O)c3cccs3)cc2C1=O`, the cytotoxicity call in the experiment on HSkMC and with HepG2 was “inactive” in each case. Besides, the growth inhibition call in the experiment on S. aureus RN4220 was “inactive”.
Take `C[C@@H]1CN([C@H](C)CO)C(=O)CCCn2cc(nn2)CO[C@H]1CN(C)S(=O)(=O)c1cn(C)cn1`: the cytotoxicity call with HSkMC and in the experiment on HepG2 was “inactive” throughout. Further, in the experiment on S. aureus RN4220, the growth inhibition call was “inactive”.
With `CNC[C@@H](O)Cn1cc(C)c(C(C)=O)c1C`, the cytotoxicity call in the experiment with HSkMC and with HepG2 was “inactive” in each case. The growth inhibition call with S. aureus RN4220 is “inactive”.
In the case of `C[C@@H]1CCCCO[C@H](CN(C)C(=O)Nc2cccc3ccccc23)[C@H](C)CN([C@H](C)CO)C(=O)c2cc(NS(=O)(=O)c3cccs3)ccc2O1`, the cytotoxicity call in the experiment on HSkMC and in the experiment with HepG2 was “active” in each case. In addition, in the experiment on S. aureus RN4220, the growth inhibition call is “inactive”.
Turning to `Cc1noc(C)c1S(=O)(=O)Nc1ccc2c(c1)CC(=O)N([C@@H](C)CO)C[C@@H](C)[C@H](CN(C)S(C)(=O)=O)O2`, the cytotoxicity call in the experiment on HSkMC and in the experiment on HepG2 was “inactive” throughout. Further, the growth inhibition call with S. aureus RN4220 is “inactive”.
As to `CC(C)c1ccccc1Cc1cc(C(=O)Nc2ccc(S(=O)(=O)c3ccccc3C(C)(C)C)cc2)c(O)c(O)c1O`, the cytotoxicity call with HSkMC and in the experiment on HepG2 was “active” in each case. In the experiment on S. aureus RN4220, the growth inhibition call is “inactive”.
As for `CCN1CC(CCN2CCOCC2)C(c2ccccc2)(c2ccccc2)C1=O.Cl` (stereo unspecified), the cytotoxicity call with HSkMC and with HepG2 was “inactive” in each case. Also, the growth inhibition call with S. aureus RN4220 was “inactive”.
Regarding `CCOC(=O)c1cc2c(c(-c3ccccc3)n1)[C@@H](CCO[Si](C)(C)C(C)(C)C)N([S@](=O)C(C)(C)C)C2`, the cytotoxicity call in the experiment on HSkMC and with HepG2 was “inactive” each time. Moreover, the growth inhibition call in the experiment on S. aureus RN4220 is “inactive”.
As to `Cc1ccc(S(=O)(=O)Nc2ccc3c(c2)CC(=O)N([C@@H](C)CO)C[C@H](C)[C@@H](CN(C)S(=O)(=O)c2cn(C)cn2)O3)cc1`, the cytotoxicity call in the experiment with HSkMC and with HepG2 was “inactive” each time. Further, the growth inhibition call with S. aureus RN4220 is “inactive”.
Take `COc1ccc(NC(=O)N(C)C[C@@H]2Oc3cc(C#CCN(C)C)ccc3S(=O)(=O)N([C@H](C)CO)C[C@H]2C)cc1`: the cytotoxicity call in the experiment with HSkMC and in the experiment with HepG2 was “inactive” each time. In addition, the growth inhibition call in the experiment with S. aureus RN4220 was “inactive”.
For `COc1cccc(S(=O)(=O)N(C)C[C@H]2Oc3ncc(C#CCN(C)C)cc3C(=O)N([C@@H](C)CO)C[C@H]2C)c1`, the cytotoxicity call with HSkMC and in the experiment with HepG2 was “inactive” in each case. Also, the growth inhibition call in the experiment on S. aureus RN4220 is “inactive”.
Consider `C[C@H]1CCCCO[C@@H](CN(C)C(=O)Nc2ccc(F)cc2)[C@@H](C)CN([C@@H](C)CO)C(=O)c2cc(NC(=O)Cc3ccccc3)ccc2O1`, for which the cytotoxicity call with HSkMC and in the experiment with HepG2 was “inactive” each time. Moreover, the growth inhibition call in the experiment on S. aureus RN4220 is “inactive”.
With `CCS(=O)(=O)NCC[C@H]1CC[C@H](NS(=O)(=O)c2ccccc2C)[C@H](CO)O1`, the cytotoxicity call in the experiment on HSkMC and in the experiment on HepG2 was “inactive” in each case. Further, in the experiment on S. aureus RN4220, the growth inhibition call is “inactive”.
Take `C[C@@H]1CN([C@@H](C)CO)C(=O)c2c(c3ccccc3n2C)-c2ccccc2CO[C@H]1CN(C)C(=O)Nc1ccccc1`: the cytotoxicity call in the experiment on HSkMC and in the experiment on HepG2 was “inactive” in each case. The growth inhibition call in the experiment with S. aureus RN4220 is “inactive”.
Turning to `O=C(C[C@@H]1CC[C@@H]2[C@H](COC[C@@H](O)CN2S(=O)(=O)c2cccc(Cl)c2)O1)N1CCOCC1`, the cytotoxicity call in the experiment on HSkMC and in the experiment on HepG2 was “inactive” throughout. Further, the growth inhibition call with S. aureus RN4220 is “inactive”.
For `CO[C@H]1CN(C)C(=O)c2cc(NC(=O)CC(F)(F)F)ccc2OC[C@@H](C)N(C(=O)C2CCOCC2)C[C@H]1C`, the cytotoxicity call in the experiment on HSkMC and with HepG2 was “inactive” each time. In addition, in the experiment with S. aureus RN4220, the growth inhibition call is “inactive”.
Take `C[C@@H]1CCCCO[C@H](CN(C)C(=O)CCC(F)(F)F)[C@H](C)CN([C@@H](C)CO)C(=O)c2cc(NC(=O)c3ccccc3)ccc2O1`: the cytotoxicity call in the experiment with HSkMC and in the experiment on HepG2 was “inactive” each time. In addition, the growth inhibition call in the experiment on S. aureus RN4220 was “inactive”.
Consider `CC(=O)O[C@H]1[C@H](Oc2cc(O)cc(O)c2C(=O)c2cc(O)cc(O)c2)O[C@H](CO)[C@@H](OC(=O)c2ccccc2)[C@@H]1O`, for which the cytotoxicity call in the experiment on HSkMC (human skeletal muscle cells) and with HepG2 was “inactive” throughout. For the same compound, in the experiment with S. aureus RN4220, the growth inhibition call was “inactive”.
